Measurements as given in the supplement of paper PMC12067230.
Single values of this set are uncertain.

Experiment: amyloid nucleation score relative to library mode (yeast Sup35 reporter selection) (log enrichment difference); higher = more amyloid nucleation; sequences are the first 22 residues of the Bri2 peptide extended by up to 12 random residues
Settings: random library (experiment): 1;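 active = nucleation score significantly above 0 at FDR 0.05; inactive = not significantly above 0 or absent from output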
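Further: [psi-pin-] Saccharomyces cerevisiae expressing SupN fusions, induced by 100 µM Cu2SO4, selected 7 d at 30 °C without adenine and uracil, scored by deep sequencing of output versus input.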

Sequence | amyloid nucleation score
EASNCFAIRHFENKFAVETLICQNPDVPEWLGLT | inactive
EASNCFAIRHFENKFAVETLICLLHTKRCPRSLR | inactive
EASNCFAIRHFENKFAVETLICLFRGQGLLCYQ | inactive
EASNCFAIRHFENKFAVETLICAVPSVS | inactive
EASNCFAIRHFENKFAVETLICPTVRRSMSSSGS | inactive
EASNCFAIRHFENKFAVETLICLSRKKVFCVDLW | inactive
EASNCFAIRHFENKFAVETLICYIVYGMERLLVW | inactive
EASNCFAIRHFENKFAVETLICCLSFGPGRDIYV | 8.29
EASNCFAIRHFENKFAVETLICVLFTSDKVVWDL | inactive
EASNCFAIRHFENKFAVETLICGMYGASWPARVS | -0.0479
EASNCFAIRHFENKFAVETLICPHWPNMRQPGGA | inactive
EASNCFAIRHFENKFAVETLICAPTFWRPGGGVV | 4.98
EASNCFAIRHFENKFAVETLICHTAIMHLSYMPC | inactive
EASNCFAIRHFENKFAVETLICCMLLGGAVRMPT | 5.38
EASNCFAIRHFENKFAVETLICGQ | 0.517
EASNCFAIRHFENKFAVETLICLKWSWSVPRAEG | inactive
EASNCFAIRHFENKFAVETLICDMYRVGGSCRVA | inactive
EASNCFAIRHFENKFAVETLICIYYLNLSIRSNA | inactive
EASNCFAIRHFENKFAVETLICEAVY | inactive

Sequence | amyloid nucleation score
EASNCFAIRHFENKFAVETLICNGVRSWDDVRRG | inactive
EASNCFAIRHFENKFAVETLICVHVLDHLGGSDW | inactive
EASNCFAIRHFENKFAVETLICCGDVRQLDKLCR | 3.75
EASNCFAIRHFENKFAVETLICDDMANTMIGMGW | 5.45
EASNCFAIRHFENKFAVETLICKVR | 1.58
EASNCFAIRHFENKFAVETLICVQMWFLVGPVPR | inactive
EASNCFAIRHFENKFAVETLICVVLLSVEYGYLG | inactive
EASNCFAIRHFENKFAVETLICKM | -0.742
EASNCFAIRHFENKFAVETLICLILFFRVSEGFT | inactive
EASNCFAIRHFENKFAVETLICLRSLSKLRSYGL | inactive
EASNCFAIRHFENKFAVETLICEPCMRPYLSARR | inactive
EASNCFAIRHFENKFAVETLICVHKSVSVCVDDR | 2.2
EASNCFAIRHFENKFAVETLICLYCAHSEKRVLE | 0.413
EASNCFAIRHFENKFAVETLICRQLTRVWLWGML | inactive
EASNCFAIRHFENKFAVETLICYVDVSAMPASVQ | 4.46
EASNCFAIRHFENKFAVETLICHLWPALSVERLT | inactive
EASNCFAIRHFENKFAVETLICLDQEYGEKRWNK | inactive
EASNCFAIRHFENKFAVETLICLYSGPQGEPGHK | 3.51
EASNCFAIRHFENKFAVETLICLSWLKFLVCE | inactive

Sequence | amyloid nucleation score
EASNCFAIRHFENKFAVETLICAHYIMVALCMRL | inactive
EASNCFAIRHFENKFAVETLICKGDCASDSRMEA | inactive
EASNCFAIRHFENKFAVETLICLTV | inactive
EASNCFAIRHFENKFAVETLICNMSWSHSICALR | inactive
EASNCFAIRHFENKFAVETLICQM | inactive
EASNCFAIRHFENKFAVETLICIEYENKLSLTSG | 4.57
EASNCFAIRHFENKFAVETLICWNIG | 6.96
EASNCFAIRHFENKFAVETLICVIAMRLSECFHQ | inactive
EASNCFAIRHFENKFAVETLICELYSWSRRVVRT | inactive
EASNCFAIRHFENKFAVETLICPIYFTLFILTQR | -0.0572
EASNCFAIRHFENKFAVETLICNPSRK | inactive
EASNCFAIRHFENKFAVETLICFRRMMVEDLLRR | -0.129
EASNCFAIRHFENKFAVETLICRVQFCNRIFVRL | inactive
EASNCFAIRHFENKFAVETLICDLSWRLLVIDEM | inactive
EASNCFAIRHFENKFAVETLICRSYGRIVEWARS | inactive
EASNCFAIRHFENKFAVETLICCSTQCSLGRW | 8.42
EASNCFAIRHFENKFAVETLICAKLVRFVLHLKL | inactive
EASNCFAIRHFENKFAVETLICYCSCDSVMIGNY | 7.27

Same assay, conditions: random library (experiment): 2

Sequence | amyloid nucleation score
EASNCFAIRHFENKFAVETLICENSYSFFVVQVY | inactive
EASNCFAIRHFENKFAVETLICVSIIMRSNCLKV | inactive
EASNCFAIRHFENKFAVETLICVFRVLTHTVSGG | inactive
EASNCFAIRHFENKFAVETLICVESSKLSFIRPW | -0.329
EASNCFAIRHFENKFAVETLICWSYIRRP | 3.02
EASNCFAIRHFENKFAVETLICFFLFHSPVVMI | inactive
EASNCFAIRHFENKFAVETLICCRVHHLSCVSLM | 2.91
EASNCFAIRHFENKFAVETLICDWSCVPLFQCVY | 4.52
EASNCFAIRHFENKFAVETLICYDGYKGSMVVRL | inactive
EASNCFAIRHFENKFAVETLICLCVSFHIKEDYN | 4.63
EASNCFAIRHFENKFAVETLICQYMPHRMFGCVP | 3.55
EASNCFAIRHFENKFAVETLICLIVCFLYSSLVP | inactive
EASNCFAIRHFENKFAVETLICKLTELRHMDASE | inactive
EASNCFAIRHFENKFAVETLICREAYCLACWTLD | 4.99
EASNCFAIRHFENKFAVETLICMYLCSMTLWKQM | inactive
EASNCFAIRHFENKFAVETLICHCEV | inactive
EASNCFAIRHFENKFAVETLICACIELFS | 4.74
EASNCFAIRHFENKFAVETLICVELNRHKTGLPW | 3.23
EASNCFAIRHFENKFAVETLICVRRNILCLRNVW | inactive
EASNCFAIRHFENKFAVETLICMYIG | 2.27
EASNCFAIRHFENKFAVETLICLIEVRYLQEFRK | inactive
EASNCFAIRHFENKFAVETLICLVLHCGCNSVR | 5.75
EASNCFAIRHFENKFAVETLICYFAYVWGGYRGL | inactive

Same assay, conditions: random library (experiment): 3

Sequence | amyloid nucleation score
EASNCFAIRHFENKFAVETLICTAGRR | inactive
EASNCFAIRHFENKFAVETLICGGLR | inactive
EASNCFAIRHFENKFAVETLICWVTSRLGCPGMR | inactive
EASNCFAIRHFENKFAVETLICLPLTTGCEFSAW | inactive
EASNCFAIRHFENKFAVETLICGGRKGAYVGR | inactive
EASNCFAIRHFENKFAVETLICTHVGLYFRMTSP | inactive
EASNCFAIRHFENKFAVETLICDPNRYLLYWIQL | inactive
EASNCFAIRHFENKFAVETLICVLNDGWDVYPGS | 4.61
EASNCFAIRHFENKFAVETLICGKHR | inactive
EASNCFAIRHFENKFAVETLICDESQAANWFLGW | inactive
EASNCFAIRHFENKFAVETLICRNVFQFVLHSRL | 0.948
EASNCFAIRHFENKFAVETLICCRAYACLCPASG | inactive
EASNCFAIRHFENKFAVETLICETKAGIGRVPVS | 1.4
EASNCFAIRHFENKFAVETLICWILVGEGDGTRC | inactive
EASNCFAIRHFENKFAVETLICGLEKSRGEVAVW | inactive
EASNCFAIRHFENKFAVETLICLNMWRT | inactive
EASNCFAIRHFENKFAVETLICCANSDGRNSGGW | 7.41
EASNCFAIRHFENKFAVETLICATLSFLINHAVV | inactive
EASNCFAIRHFENKFAVETLICWTMITQTDGCLG | inactive
EASNCFAIRHFENKFAVETLICRPVYAAASSGEW | inactive

Sequence | amyloid nucleation score
EASNCFAIRHFENKFAVETLICWYASLYYMCQDL | inactive
EASNCFAIRHFENKFAVETLICFCLSRSGLWREG | 4.83
EASNCFAIRHFENKFAVETLICLGRCAAGVGTKR | inactive
EASNCFAIRHFENKFAVETLICFAHCFGLYVYSG | inactive
EASNCFAIRHFENKFAVETLICMVPRSWTAWGRF | -0.0267
EASNCFAIRHFENKFAVETLICNLKLTYC | 6.19
EASNCFAIRHFENKFAVETLICLSIYVVLFIMRS | 1.71
EASNCFAIRHFENKFAVETLICRDGVLMSAVLAT | inactive
EASNCFAIRHFENKFAVETLICFARNITKSRFAR | inactive
EASNCFAIRHFENKFAVETLICRCWCHGPRWGSV | inactive
EASNCFAIRHFENKFAVETLICKRSMPTQSVMEV | inactive
EASNCFAIRHFENKFAVETLICIMAREYGGDRGL | 2.86
EASNCFAIRHFENKFAVETLICQLDGPWIVIVFR | inactive
EASNCFAIRHFENKFAVETLICRMSSGVNGTCEV | inactive
EASNCFAIRHFENKFAVETLICWVSVRGGFSGFR | inactive
EASNCFAIRHFENKFAVETLICAYVMMNYWAQWV | inactive
EASNCFAIRHFENKFAVETLICTDNKWMKSGSGW | 2.99
EASNCFAIRHFENKFAVETLICMLVLILNSRQSR | inactive
EASNCFAIRHFENKFAVETLICMAHWHGMGISVY | -0.444
